Reference: PMC6919601, “Identification of Plasmodium dipeptidyl aminopeptidase allosteric inhibitors by high throughput screening” (PLoS ONE, 2019)
Screen size: about 110,000 compounds; about 230 (0.21%) showed an effect of 50% or more. The list shows a part of the results.

These compounds were tested against DPAP1 (Plasmodium falciparum, UniProt Q8IIJ9) (assay: primary screen, percent inhibition; read by cleavage of a fluorogenic dipeptide substrate; higher = more effect of the substance).
Design: species or system P. falciparum D10 trophozoite lysates; single well
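Also: 30 min substrate incubation versus DMSO and 10 µM JCP410 controls.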

Chain of DPAP1 (Q8IIJ9 whole entry, looked up): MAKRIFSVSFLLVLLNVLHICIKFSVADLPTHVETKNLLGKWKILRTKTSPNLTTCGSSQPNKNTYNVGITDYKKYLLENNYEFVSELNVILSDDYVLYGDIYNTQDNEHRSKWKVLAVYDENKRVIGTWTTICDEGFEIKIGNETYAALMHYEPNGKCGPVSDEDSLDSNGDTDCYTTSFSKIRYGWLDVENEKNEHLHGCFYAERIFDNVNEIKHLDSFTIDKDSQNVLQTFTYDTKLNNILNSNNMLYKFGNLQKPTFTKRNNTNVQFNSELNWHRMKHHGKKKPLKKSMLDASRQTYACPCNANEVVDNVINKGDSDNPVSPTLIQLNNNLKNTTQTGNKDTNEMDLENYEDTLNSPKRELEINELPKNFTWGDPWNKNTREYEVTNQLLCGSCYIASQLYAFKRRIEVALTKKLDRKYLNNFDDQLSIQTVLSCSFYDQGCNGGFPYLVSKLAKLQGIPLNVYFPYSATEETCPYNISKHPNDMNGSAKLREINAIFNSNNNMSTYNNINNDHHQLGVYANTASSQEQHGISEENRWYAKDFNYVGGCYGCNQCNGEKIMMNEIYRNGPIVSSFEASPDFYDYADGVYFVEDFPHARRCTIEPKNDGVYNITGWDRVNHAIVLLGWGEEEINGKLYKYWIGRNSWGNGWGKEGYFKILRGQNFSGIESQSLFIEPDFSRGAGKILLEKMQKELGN

Structure (SMILES)	% Inhibition @ 10 uM [%]
c1ccc2c(-c3ccncc3)c[nH]c2c1	-7.7
Cc1cccc(Oc2nc3ccccn3c(=O)c2/C=C(\C#N)c2nc3ccccc3[nH]2)c1C	5.21
O=C(NCCN1CCCC1)c1sc2ccccc2c1Cl	4.17
Cc1cccc(NC2=NC(=O)/C(=C\c3cccs3)S2)c1C	0.605
N#CCNC(=O)c1cc2nc(-c3ccccc3)cc(C(F)(F)F)n2n1	0.161
Cc1ccccc1NC(=O)CN1C(=O)S/C(=C/c2cccc(F)c2)C1=O	-8.4
COc1ccc(NS(=O)(=O)c2ccc(NC(C)=O)cc2)nn1	-3.93
COc1ccc(CCNC(=O)C2=Cc3sc(C)c(C)c3CS2)c(OC)c1	0.107
Cc1nc2c(C(=O)NCCCN3CCOCC3)cnn2c(O)c1Cc1ccc(F)cc1Cl	-3.36
CCN(CC)CCOC(=O)c1ccc(OC)cc1O	-1.68
O=C(CN1CC(=O)N2CCCC2C1=O)NCc1cccc(Cl)c1 (stereo not drawn)	0.658
O=C(c1ccccc1/S(=N/S(=O)(=O)c1ccccc1)N1CCOCC1)N1CCOCC1 (stereo not drawn)	-0.597
O=C(Nc1ccncc1)c1cccc(F)c1	-2.27
COc1ccc(C2CC3=Nc4ccccc4NC(c4ccccn4)C3=C(O)C2)cc1 (stereo not drawn)	2.69
COc1ccc(N/C=C(/C#N)c2nc(-c3ccccc3)cs2)cc1	2.46
S=C(NCc1cccs1)Nc1cccc(Cl)c1	-3.09
Brc1ccc(CNc2ccc(CNc3nc[nH]n3)cc2)cc1	-8.59
COc1ccccc1NC(=O)CC(C)(C)C	6.1
O=C(NCc1ccco1)c1cc(-c2ccccc2O)on1	-10
O=C(O)CN(CC(=O)O)C1CS(=O)(=O)CC1O (stereo not drawn)	-5.45
Cc1ccccc1Nc1nc2nonc2n2nnnc12	3.95
OCC1CCCN(C2CC3CCC2C3)C1 (stereo not drawn)	-5.11

Structure (SMILES)	% Inhibition @ 10 uM [%]
CCOc1ccc2ccccc2c1C=C1C(=O)NC(=O)NC1=O	-4.43
COc1ccc(Cl)cc1NC(=O)c1c(-c2ccccc2Cl)noc1C	1.43
Cc1ccc(C)c(OCCn2ccnc2)c1	3.05
CC/C(=N\c1ccc(C)cc1)C1=C(O)CC(c2ccccc2)CC1=O (stereo not drawn)	3.72
Cn1nc(-c2ccc(F)cc2)nc2c(=O)n(C)c(=O)nc1-2	-1.11
Cc1ccc(N2NC(=O)/C(=C/c3ccc(N4CCOCC4)cc3)C2=O)cc1C	-1.5
Cc1ccc2c(CN3CCN(C(=O)c4ccc(Cl)cc4)CC3)cc(=O)oc2c1	3.88
O=C(CSc1c2c(nc3ccccc13)CCCC2)NCCN1CCOCC1	2
O=C(Nc1ccc(F)cc1)Nc1ccc(Cl)c(Cl)c1	1.35
COc1ccc(N(CC(=O)NC2CCCCC2)S(=O)(=O)c2ccc(C)cc2)c(OC)c1	0.324
COc1ccccc1-n1c(C)nc2cc(C(=O)NCc3ccc4c(c3)OCO4)ccc21	5.85
O=C1C2C3CCC(C3)C2C(=O)N1c1ccccc1O (stereo not drawn)	-3.03
Oc1ccc2ccccc2c1CN1CCc2ccccc2C1	1.74
Cc1c(C(=O)N2CCCC2)oc2c1-c1nn(CC(=O)NC(C)CCc3ccccc3)cc1CC2 (stereo not drawn)	1.45
COc1ccc(CCNC(=O)c2cnc(SC)nc2C)c(OC)c1	1.6
Cc1ccc(-c2cc(-c3ccccc3)nc(OC(C)C)n2)cc1	-4.18
COc1ccccc1CNC(=O)C1(NS(=O)(=O)c2cccc3cccnc23)CCCCC1	-6.07
CCO/C(O)=C/C1=NC(C)(C)CC12C=CC(=O)c1ccccc12 (stereo not drawn)	-0.703
CCCCN(CCNC(=O)C1c2ccccc2C(=O)N(C)C1c1cccs1)Cc1ccco1 (stereo not drawn)	1.92
CCN1CCN(C(=O)Cn2ncc3c4ccccc4n(Cc4ccc(F)cc4)c3c2=O)CC1	-1.58
CCC[C@H](NC(=O)c1ccccc1)C(=O)NCC#N	-0.214
O=C(O)CN1C(=O)CC(Cc2ccc(Cl)cc2)C1=O (stereo not drawn)	11.9

Structure (SMILES)	% Inhibition @ 10 uM [%]
CCc1nn(-c2cc(Oc3ccc(C)cc3)ncn2)c(N)c1C(N)=O	60.5
O=C(CN1C(=O)CSc2ncccc21)NCCCN1CCCC1=O	-7.93
O=c1ccc2cc3c(-c4ccc5ccccc5c4)coc3cc2o1	-2.92
CC1=C(C)CC(C(=O)c2ccc(C)cc2)C(C(=O)O)C1 (stereo not drawn)	-2.47
CC(=O)N1CCN(C2CCC(C(C)(C)C)CC2)CC1 (stereo not drawn)	0.217
O=C(Nc1ccncc1)C1CCN(S(=O)(=O)c2cccc3nonc23)CC1	8.91
Clc1cccc(Nc2nc(N3CCOCC3)nc(-n3cccn3)n2)c1	-9.07
Cn1c(=O)c2c(ncn2CC(=N)N2CCCCC2)n(C)c1=O	6.99
N=C(OCc1ccccc1)c1cncc(N2CCOCC2)n1	18
CCOC(=O)c1c(NC(=O)c2cc3c(C)nn(-c4ccccc4)c3s2)sc2c1CCCC2	-6.7
CC(C)(C)NC(=O)CCC(=O)c1ccccc1	1.81
Nc1cc(OCc2ccccc2)ccc1F	-3.19
Cc1cc(C(=O)N[C@@H](CC(C)C)C(=O)NCC#N)ccc1-c1ccccc1	3.19
COc1cc(C(=O)NCc2nnc(SCC(=O)c3ccccc3)o2)cc(OC)c1OC	1.85
CC(CCN1CCCC(CO)C1)c1ccccc1 (stereo not drawn)	-4.14
CN(CC1CC=CCC1)CC(O)c1ccccc1 (stereo not drawn)	-3.15
Cc1ccc(NC(=O)c2cccnc2Cl)cc1C	-0.0619
CC(=O)N1CCC2(CC1)CC(=O)c1cc(OCC(=O)NCCc3ccc(Cl)cc3)ccc1O2	-4.07
Fc1ccc(-c2noc3ncnc(NCc4ccc(CN5CCCCCC5)o4)c23)cc1	1.23
Cc1ccc2oc(=O)c3cc(C(=O)N(C)Cc4ccco4)sc3c2c1	-3.68
Cc1nc2cc(-c3ccccc3)nn2c(C)c1CC(=O)NCCc1ccc(Cl)cc1	0.953
Cc1c(C(=O)NCCc2ccccc2)oc2ccc(S(=O)(=O)N3CCCCCC3)cc12	-2.95
